# According to the supplement of paper PMC9174493:
# The other results are listed elsewhere or left out. Single values of this set are uncertain. Values with irradiation are relative to irradiated vehicle.
# Tested on: A549-Dual
# Assay: NF-kB reporter (SEAP) activity, viability-corrected, relative to vehicle (fold change vs vehicle); higher = more activation of STING-IRF / NF-kB immune response reporter
# Settings: 10 µM; irradiation: none
# 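Wherever NF-kB reporter (SEAP) activity, viability-corrected, relative to vehicle is given: viability correction based on the alamar blue assay, with concentrations leaving 10% survival or less dropped.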
row,Structure (SMILES),NF-kB reporter
1,CCCCc1nc(Cl)c(CO)n1Cc1ccc(-c2ccccc2-c2nnn[nH]2)cc1.[KH] [Losartan Potassium (DuP 753)],0.909
2,C#CC1(O)CCC2C3CCC4=CCCCC4C3C(=C)CC21CC (centres undefined) [Desogestrel],0.738
3,NC(=O)OCC(COC(N)=O)c1ccccc1 [Felbamate],0.753
4,C1=Cc2ccccc2Nc2ccccc21 [Iminostilbene],0.603
5,Cc1ncc(CO)c(CO)c1O.O=C1CCC(C(=O)O)N1 [Metadoxine],1.12
6,CO/N=C(\C(=O)NC1C(=O)N2C(C(=O)[O-])=C(COC(N)=O)CSC12)c1ccco1.[Na+] (centres undefined) [Cefuroxime sodium],0.971

# Tested on: A549-Dual
# Assay: ISRE reporter (Lucia luciferase) activity, viability-corrected, relative to vehicle (fold change vs vehicle); higher = more activation of STING-IRF / NF-kB immune response reporter
# Settings: 10 µM; irradiation: 8 Gy/4 fr
row,Structure (SMILES),ISRE reporter
1,CNCCCC12CCC(c3ccccc31)c1ccccc12.Cl [Maprotiline HCl],1.25
2,CN(C)CCc1c[nH]c2ccc(Cn3cncn3)cc12.O=C(O)c1ccccc1 [Rizatriptan Benzoate],0.844
3,CCC(C)C(=O)OC1CC(O)C=C2C=CC(C)C(CCC(O)CC(O)CC(=O)[O-])C21.[Na+] (centres undefined) [Pravastatin sodium],0.91
4,CCCCOc1cc(C(=O)OCCN(CC)CC)ccc1N.Cl [Oxybuprocaine HCl],0.752
5,COc1cc(C)c(/C=C/C(C)=C/C=C/C(C)=C/C(=O)O)c(C)c1C [Acitretin],0.696
6,CN1CCN(C2=Nc3cc(Cl)ccc3Nc3ccccc32)CC1 [Clozapine],1.11
7,Cc1ccccc1C(OCCN(C)C)c1ccccc1.O=C(O)CC(O)(CC(=O)O)C(=O)O (centres undefined) [Orphenadrine Citrate],0.857
8,COc1ccc(C(C)=O)c(O)c1 [Paeonol],1.12
9,C[N+]1(C)C2CCC1CC(OC(=O)C(O)c1ccccc1)C2.[Br-] (centres undefined) [Homatropine Methylbromide],0.671
10,Cl.Clc1cccc(Cl)c1NC1=NCCN1 [Clonidine HCl],0.9
11,COc1ccc(/C=C/c2cc(OC)cc(=O)o2)cc1 [Yangonin],1.09
12,CC(CCc1ccccc1)NCC(O)c1ccc(O)c(C(N)=O)c1.Cl (centres undefined) [Labetalol HCl],1.43
13,[Cl][Cs] [Cesium chloride],0.685
14,COc1cc2c(cc1O)CCC1C2CCC2(C)C(O)CCC12 (centres undefined) [2-Methoxyestradiol (2-MeOE2)],0.287
15,Cc1cn(C2CC(N=[N+]=[N-])C(CO)O2)c(=O)[nH]c1=O (centres undefined) [Zidovudine],0.665
16,COC(=O)C(c1ccccc1Cl)N1CCc2sccc2C1.O=S(=O)(O)O (centres undefined) [Clopidogrel],0.837
17,Cc1c(C(C)C)c(=O)n(-c2ccccc2)n1C [Propyphenazone (4-Isopropylantipyrine)],0.67
18,Cl.N[C@@H](CS)C(=O)O [L-Cysteine HCl],1.43
19,O=c1[nH]cnc2c1ncn2C1CCC(CO)O1 (centres undefined) [Didanosine],0.574
20,O=[N+]([O-])c1ccc(O)cc1 [4-Nitrophenol],0.757
21,CCCOc1ccc(C(=O)OCCN(CC)CC)cc1N.Cl [Proparacaine HCl],0.772
22,CCN(CCO)CCCC(C)Nc1ccnc2cc(Cl)ccc12.O=S(=O)(O)O (centres undefined) [Hydroxychloroquine Sulfate],0.811
23,O=S(=O)([O-])Oc1ccc(C(c2ccc(OS(=O)(=O)[O-])cc2)c2ccccn2)cc1.[Na+].[Na+] [Sodium Picosulfate],0.763
24,CN/C(=C\[N+](=O)[O-])NCCSCc1ccc(CN(C)C)o1.Cl [Ranitidine Hydrochloride],0.816
25,CC(=O)O.CC(C)CC(NC(=O)C(COC(C)(C)C)NC(=O)C(Cc1ccc(O)cc1)NC(=O)C(CO)NC(=O)C(Cc1c[nH]c2ccccc12)NC(=O)C(Cc1cnc[nH]1)NC(=O)C1CCC(=O)N1)C(=O)NC(CCCN=C(N)N)C(=O)N1CCCC1C(=O)NNC(N)=O (centres undefined) [Goserelin Acetate],0.832
26,O=c1c(OC2OC(CO)C(O)C(O)C2O)c(-c2ccc(O)c(O)c2)oc2cc(O)cc(O)c12 (centres undefined) [Isoquercitrin],0.552
27,CN/C(=C\[N+](=O)[O-])NCCSCc1ccc(CN(C)C)o1 [Ranitidine],0.668
28,CNCCC=C1c2ccccc2CCc2ccccc21.Cl [Nortriptyline hydrochloride],0.442
